Measured values published in the supplement of paper PMC11417369.
The other results are listed elsewhere or left out.

Each sequence was assayed on PfHDP1 homeodomain (GST-tagged) (assay: gcPBM binding intensity (ln(normalized median fluorescence intensity)); higher = stronger DNA binding).
Procedure, shortened: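 An Agilent 4 × 180k array of primer-extended double-stranded 36-bp intergenic genomic probes, with negative controls, was incubated for 1 h with GST-tagged P. falciparum DNA-binding domains expressed in E. coli. Alexa488 anti-GST antibody detected bound protein, scanned at 488 nm. Binding intensity is the highest Masliner-normalised natural-log median intensity across replicate spots of either probe orientation.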

| Sequence | gcPBM binding intensity (ln) |
| --- | --- |
| AACATTTTAAAATAATGTACTTGAAAAAAAAACTAC [XGTACX_site8894] | 6.65 |
| TATTTAAGAGTATGAACACACATCATACCCATATAA [CACACA_site5911] | 6.27 |
| CATATAAATAAATATACATGCATACATACATATATA [TGCATGCA_site713] | 6.4 |
| ATAACATACATAACAACACACAATATTTATAGGTAT [CACACA_site6243] | 6.96 |
| TATTTTCTCTTAAAAAGTACTCATATATACATTTAT [XGTACX_site7748] | 6.38 |
| TTTAGTTCATACTATGCACACTACGTATATTTTTAA [CACACA_site5484] | 8.95 |
| ATTAATAAGAAGAAAAGTACAAAACAAAAAGATATA [XGTACX_site7473] | 7.08 |
| CGTTATATATTTTATAGTACTTTTTGTAAATTTTTT [XGTACX_site7682] | 6.47 |
| TAACCAAAAAAAAATATTTAAAATAAATATATATAT [CACACA_negctrl_site1516] | 8.26 |
| ATGTCAGGGAAAAAAACACACAAGAGTATGATATGT [CACACA_site2180] | 6.66 |
| ATTTTTATATTTAATACACACATAAAATCATACCAT [CACACA_site23] | 6.95 |
| TTACATATTTTCATTTGTACATATTCATTTTTTTTC [XGTACX_site6988] | 6.47 |
| AAATAACCCACGTGCATGCACTTCAATAACTGAACT | 9.18 |
| TATATATTTATATATTGTACACTCTTATGTAGTGTA [XGTACX_site210] | 6.49 |
| TAAAAAAGAAAAAGAGCACACAAAAATATTTAACCT [CACACA_site8885] | 6.8 |
| TATAATAAATATACTGGTACACAAATATATATATTT [XGTACX_site7741] | 6.41 |
| AACATCTTATCATCATGTACGAAGCAGTTTTATAAG [XGTACX_site2490] | 6.38 |
| TGTAATTTTTTACGTTGTACATATATTAACAATATA [XGTACX_site3991] | 6.21 |
| ATATTATATTTACATAGTACACTATATGTATATATA [XGTACX_site2101] | 6.36 |

| Sequence | gcPBM binding intensity (ln) |
| --- | --- |
| TATGCATATACACAAGCACACATATATATATATATA [CACACA_site8266] | 9.23 |
| AAAAAAATAATATAATATTAAATCTTAGTTAATAAA [GTGCAC_negctrl_site658] | 5.9 |
| AAAAAAAAAAAAAAAAAAACTAATATAATAAAAATA [TGCATGCA_negctrl_site150] | 6.7 |
| TTTTTTTTTTTTTTTTCTTTTTTTTTTTTAAATAAG [XGTACX_negctrl_site418] | 5.65 |
| TTTTTTTTTTTTTACACACCCAAATCACATACATAT [CACACA_site6089] | 6.85 |
| AAAAAAAAAAAAAAAACACACAAGGATCAGATAGAT [CACACA_site7743] | 6.58 |
| TTTTTCAGAAAAGAAACACACATATAAATATTTATA [CACACA_site7170] | 6.54 |
| TGTTGTTACCTATATACACACATATAAATATTATAG [CACACA_site7180] | 6.88 |
| AATATTATGATATTATGTACATATTAAAAGCACCAC [XGTACX_site6236] | 7.51 |
| AGGGCATATATATATGCACACATACATATATACATG [CACACA_site9282] | 8.86 |
| TTTACACTTTTTTTTGTACACACTAAAAAGATTAAC [CACACA_site3933] | 6.58 |
| TTTATCATGAACAGAAGTACATTTATATCAATGTCT [XGTACX_site6470] | 6.12 |
| ATATATATATAATGTTGTACGTTTTATTCTCCCATT [XGTACX_site8071] | 8.82 |
| ATATATATATATTTTACACACAATGGAGAAAAAAAT [CACACA_site644] | 8.69 |
| TATTTTTAAAAGTTAACAGAAAAAATATAAATAAAT [GTGCAC_negctrl_site295] | 6.81 |
| TGGTATATACGACACACACACATATGTATAAATATA [CACACA_site6561] | 7 |
| TTTTCCCTTTTTTCCGCACACAATAAAATAAATAAA [CACACA_site2807] | 6.96 |
| TACCATAATCAATGCACACATAACAAAATATTATTA [CACACA_site2722] | 9.98 |
| TGTAATAAAATAATTAGTACACATATATGTATATTT [XGTACX_site5896] | 6.32 |

| Sequence | gcPBM binding intensity (ln) |
| --- | --- |
| GTTTAAAATCTTTGCACACATATAAATAAATATATT [CACACA_site2555] | 10.4 |
| AGTATATTAATATAATGTACAAACGTTTATTTTGTA [XGTACX_site5980] | 6.42 |
| AGCAACCCCCTAGCTACACACATATAGATATAAATA [CACACA_site6577] | 7.48 |
| GAAAAGTAGACAATATGTACATATAGTATTTATAAA [XGTACX_site878] | 6.75 |
| AAATATCTACATATTTGTACATATTTATACATATTT [XGTACX_site6300] | 6.12 |
| TATATATTATAAAAGAGTACAGAAAGAAAAAAAAAT [XGTACX_site8305] | 7.28 |
| AAACTTTTTTTAAAAACACACATATATATTTATATA [CACACA_site4092] | 6.66 |
| ATATTCAATATATTATGTACACATATATGAGGATAT [XGTACX_site7019] | 6.9 |
| AGTTTATATTATTAAAGTACATATATATATTCTTAA [XGTACX_site3164] | 6.2 |
| AGTCGAATGATGTACACACATACAAAACATTTATGC [CACACA_site4022] | 6.7 |
| ATATATATATATATATGGTAAAGTAAAAGGAAATAC [XGTACX_negctrl_site45] | 9.54 |
| GAATAATCTAGAAACACACAAACACGACAAAAGAAA [CACACA_site4135] | 7.04 |
| TACTAACTTTTTAAAAGTACAGAACCATAACCATAA [XGTACX_site7182] | 6.79 |
| ATCATGTTATATATATGTACTAATAATATAATATAA [XGTACX_site1326] | 6.61 |
| TATATATAGAAACACACACACACATATATATATATA [CACACA_site4116] | 9.25 |
| AAAATTTAATATAATGCACACATAAAAAAAAAATCA [CACACA_site7882] | 10.7 |
| AATATCAATATTATATGTACTTATAATTTCAATGTA [XGTACX_site2423] | 6.37 |
| TAAATTTATTAATCAAGTACAAAATAAATTTTTATA [XGTACX_site2745] | 5.78 |
| TATTTATAAAAAAAATGTACATTTATGTATAAGCTA [XGTACX_site3266] | 6.63 |
